The whole screen tested about 110,000 compounds, of which about 230 (0.21%) showed an effect of 50% or more. This is one part of the list.
Biological target: DPAP1 (Plasmodium falciparum, UniProt Q8IIJ9)
Assay: primary screen, percent inhibition; read by cleavage of a fluorogenic dipeptide substrate; higher = more effect of the substance
Design: species or system P. falciparum D10 trophozoite lysates; single well
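Further: 30 min substrate incubation versus DMSO and 10 µM JCP410 controls.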

Chain of DPAP1 (Q8IIJ9 whole entry, looked up): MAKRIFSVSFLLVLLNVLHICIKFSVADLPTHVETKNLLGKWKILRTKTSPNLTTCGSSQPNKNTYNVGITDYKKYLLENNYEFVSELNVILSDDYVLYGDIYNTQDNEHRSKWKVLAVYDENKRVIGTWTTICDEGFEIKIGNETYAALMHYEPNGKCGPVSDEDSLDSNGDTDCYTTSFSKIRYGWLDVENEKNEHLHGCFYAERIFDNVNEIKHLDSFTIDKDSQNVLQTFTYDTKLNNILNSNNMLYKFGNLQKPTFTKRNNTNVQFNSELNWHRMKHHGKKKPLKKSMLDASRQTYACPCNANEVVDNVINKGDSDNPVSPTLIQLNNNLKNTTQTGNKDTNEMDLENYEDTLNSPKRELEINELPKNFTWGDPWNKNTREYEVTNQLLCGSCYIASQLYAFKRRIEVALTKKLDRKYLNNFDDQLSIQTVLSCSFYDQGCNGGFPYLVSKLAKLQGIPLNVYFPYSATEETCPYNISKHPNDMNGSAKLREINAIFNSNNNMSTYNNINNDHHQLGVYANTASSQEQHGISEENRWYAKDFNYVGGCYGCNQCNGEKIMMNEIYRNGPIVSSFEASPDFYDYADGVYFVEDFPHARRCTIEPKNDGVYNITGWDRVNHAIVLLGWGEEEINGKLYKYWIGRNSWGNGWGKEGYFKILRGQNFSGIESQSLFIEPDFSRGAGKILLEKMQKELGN

Compared with CC(C)C[C@H](NC(=O)c1ccc(Nc2nc(-c3ccncc3)cs2)cc1)C(=O)NCC#N, COc1ccc(C(=O)N[C@@H](CC(C)C)C(=O)NCC#N)cc1OC is lower in “% Inhibition @ 10 uM” value: 7.39% for the first, -4.72% for the second.

Going from CC(NC1CC(=O)N(c2ccccc2)C1=O)C12CC3CC(CC(C3)C1)C2 (centres unmarked) to O=C(NCCCCc1ccccc1)C12CC3CC(CC(C3)C1)C2, the “% Inhibition @ 10 uM” value rises from -8.46% to -1.48%.

First: O=C(c1ccccc1)N1CCN(c2ccccc2)CC1
Second: O=C(c1cccnc1)N1CCN(C(=O)c2ccccc2F)CC1
The “% Inhibition @ 10 uM” value of the first is lower: -0.856% for the first, 2.3% for the second.

Compared with COc1cccc(-c2cc(C(=O)NC3CCCc4ccccc43)[nH]n2)c1 (centres unmarked), COc1ccc(OC)c(-n2c(SCC(=O)NC3CCCC3)nnc2-c2c[nH]c3ccccc23)c1 is lower in “% Inhibition @ 10 uM” value: 0.713% for the first, -4.97% for the second.

First: COc1cc(Br)c(/C=C2\Sc3ccccc3C2=O)cc1OC
Second: COc1ccc(C2NC(=O)c3[nH]nc(C)c32)cc1OC (centres unmarked)
The “% Inhibition @ 10 uM” value of the first is higher: 4.07% for the first, -3.35% for the second.

Compared with Cc1cc(C)n(-c2cc(Oc3ccccc3C)ncn2)n1, Cc1ccc(OCC(=O)Nc2ccccn2)c(C)c1 is lower in “% Inhibition @ 10 uM” value: -1.55% for the first, -3.45% for the second.

Going from O=C(c1cnn2c(C(F)(F)F)cc(-c3cccs3)nc12)N1CCCC1 to O=C(Cn1ncc2ccc(Cl)cc21)N1CCCCC1, the “% Inhibition @ 10 uM” value falls from 1.16% to -2.88%.

Compared with CN(C)CCC(=O)N1c2ccccc2Sc2ccccc21, CCC(=O)/N=c1\sc2ccccc2n1-c1ccccc1 is lower in “% Inhibition @ 10 uM” value: -2.47% for the first, -10.9% for the second.

Compared with Cc1cc(C)c2c3c(sc2n1)C(c1ccc(F)cc1F)C(C#N)=C(N)O3 (centres unmarked), Cc1cc(-c2[nH]nc3c2C(c2ccc(Br)cc2)C(C#N)=C(N)O3)c(C)s1 (centres unmarked) is lower in “% Inhibition @ 10 uM” value: 3.62% for the first, -2.78% for the second.

Going from CC(C)=CC[C@H](NC(=O)OCc1ccccc1)C(=O)NCC#N to CC(C)(C)OC(=O)NCc1cccc(C(=O)N[C@@H](CSCc2ccccc2)C(=O)NCC#N)c1, the “% Inhibition @ 10 uM” value rises from -6.46% to 5.75%.

First: NC(=O)c1ccccc1NC(=O)Cc1ccc(Br)cc1
Second: CCOC(=O)c1ccccc1NC(=O)c1ccc(C(C)C)cc1
The “% Inhibition @ 10 uM” value of the first is higher: 9.17% for the first, 2.03% for the second.

Going from Cc1ccc(OCCSc2nc3c(N)nc[n+](Cc4ccccc4)c3[nH]2)cc1 to Cc1ccc(OCCCn2c(C(C)O)nc3ccccc32)cc1 (centres unmarked), the “% Inhibition @ 10 uM” value falls from 2.08% to -2.74%.

Compared with Cc1nc2c(ccc3ccsc32)s1, COc1ccc(C2=N/C(=C\c3sccc3C)C(=O)O2)c(Cl)c1 is higher in “% Inhibition @ 10 uM” value: 1.72% for the first, 7.76% for the second.

First: COc1ccc(-c2nc(N)c3c4c(sc3n2)CCCC4)cc1
Second: COc1ccc(C(=O)c2sc3nc4c(cc3c2N)CCC4)cc1
The “% Inhibition @ 10 uM” value of the first is higher: -1.07% for the first, -4.49% for the second.

Compared with COCCOC(=O)C1=C(C)NC(=O)NC1c1ccccc1O (centres unmarked), CC1=C(C(=O)OCC2CCCO2)C(c2cccc(Cl)c2)NC(=O)N1 (centres unmarked) is lower in “% Inhibition @ 10 uM” value: 1.58% for the first, -0.582% for the second.

Going from COc1ccc(CN2CCN(C(=O)c3ccc(OC)c(OC)c3)CC2)c(OC)c1 to COc1ccc(N2C(=O)C(Cl)=C(Nc3ccc(OC)cc3OC)C2=O)cc1, the “% Inhibition @ 10 uM” value falls from 1.82% to -5.07%.

First: CCOC(=O)c1c(NS(=O)(=O)c2ccc(C3CNC(=O)C3)cc2)sc2c1CCCC2 (centres unmarked)
Second: CCS(=O)(=O)c1nc(S(=O)(=O)c2ccc(C)cc2)c(N2CCC(O)CC2)s1
The “% Inhibition @ 10 uM” value of the first is higher: 3.68% for the first, 1.15% for the second.

First: Cc1cc(C)c(S(=O)(=O)NCc2ccncc2)c(C)c1
Second: Cc1cc(/C=C2/SC(=O)N(C(C)C)C2=O)c(C)n1-c1ccncc1
The “% Inhibition @ 10 uM” value of the first is higher: 1.74% for the first, -0.68% for the second.

Going from COc1ccc(S(=O)(=O)N2CCCC(C)C2)cc1 (centres unmarked) to COc1ccc(S(=O)(=O)N2CCC(C(=O)Nc3ccc(Br)cc3F)CC2)cc1, the “% Inhibition @ 10 uM” value falls from -4.4% to -7.3%.

Going from N#C/C(=C\c1ccc([N+](=O)[O-])cc1)c1nc(-c2ccc(-c3ccccc3)cc2)cs1 to Nc1c(-c2nc(-c3ccccc3)cs2)c2ccccn2c1C(=O)c1cccs1, the “% Inhibition @ 10 uM” value falls from 2.13% to -0.958%.

Going from CCCN(Cc1ccc([N+](=O)[O-])cc1)CC1CC1 to CN(C)CCCN(CCCN(C)C)Cc1ccc(Cl)c([N+](=O)[O-])c1, the “% Inhibition @ 10 uM” value rises from -1.5% to -0.132%.

Going from Cn1c(=O)[nH]c(=O)c2c1nc(CN1CCOCC1)n2Cc1ccc(F)cc1 to N#Cc1nc(-c2ccc(F)cc2)oc1NCCN1CCOCC1, the “% Inhibition @ 10 uM” value rises from -4.69% to 2%.

Going from COc1ccc(Br)c2c1-c1nc(NC(=O)c3ccccc3)sc1C2 to CC1=C(C(=O)Nc2cccnc2)C(c2cccc(Br)c2)n2nc(-c3cccs3)nc2N1 (centres unmarked), the “% Inhibition @ 10 uM” value rises from 1.62% to 2.53%.

First: CCNC(=O)C12CCC(C)(c3nc4cc(C)c(C)cc4nc31)C2(C)C (centres unmarked)
Second: CNC(=O)C1=NCCCc2cc(OC)c(OC)cc21
The “% Inhibition @ 10 uM” value of the first is lower: -2.74% for the first, 5.55% for the second.

First: CC(=O)NS(=O)(=O)c1ccc(NC(=O)c2cc(-c3ccc(Cl)cc3)nc3ccccc23)cc1
Second: CCC1CCCCN1CCCNC(=O)c1cc(-c2cccnc2)nc2ccccc12 (centres unmarked)
The “% Inhibition @ 10 uM” value of the first is higher: 6.61% for the first, -5.92% for the second.

Compared with COc1ccc(C)cc1N(CC(=O)N1CCCCC1)S(C)(=O)=O, COc1cccc(CNC(=O)CCCn2ccc3cc(S(=O)(=O)N4CCCC4)ccc32)c1 is higher in “% Inhibition @ 10 uM” value: -12.4% for the first, 2.82% for the second.

Going from NC(=O)C1CCN(Cc2ccc(Br)cc2)CC1 to CCOC(=O)N1CCN(Cc2ccc(Cl)c(Cl)c2)CC1, the “% Inhibition @ 10 uM” value falls from -0.603% to -1.78%.

Going from CCO/C(O)=C1\C(CC)=NC2(O)c3ccccc3C(=O)C12O (centres unmarked) to CCC1(Cc2ccccc2)C(=O)NC(=O)NC1=O, the “% Inhibition @ 10 uM” value falls from 8.68% to -3.16%.

First: CCc1ccc(-n2c(SCC(=O)N3CC(C)CC(C)C3)nc3nnc(C)c-3c2N)cc1 (centres unmarked)
Second: CCc1ccc(OCCn2cccc2/C=C2/C(=N)N3OC(C)=CC3=NC2=O)cc1
The “% Inhibition @ 10 uM” value of the first is higher: 7.3% for the first, 0.317% for the second.

Compared with CSc1nc2ccccc2c(=O)n1-c1ccccc1, CC(C)Oc1ccc(Cc2nnc(S)n2-c2ccccc2)cc1 is higher in “% Inhibition @ 10 uM” value: 0.35% for the first, 6.91% for the second.

Going from O=c1c(-c2ccccc2)c(N2CCC(Cc3ccccc3)CC2)c1=O to Cc1cccc(OCC(=O)N2CCN(c3nnc(-c4ccccc4)c4ccccc34)CC2)c1, the “% Inhibition @ 10 uM” value falls from 5.89% to -4.62%.

Going from O=C(NCC1CCCO1)c1cccc(N2C(=O)C3C4c5ccccc5C(c5ccccc54)C3C2=O)c1 (centres unmarked) to O=C(NCc1ccco1)c1ccc(CN2CCc3ccccc3C2)cc1, the “% Inhibition @ 10 uM” value falls from 9.96% to -1.81%.

First: CCC(NC(=O)CC1CC2CCC1C2)C(=O)c1nc2ccccc2o1 (centres unmarked)
Second: CN(c1ccc(C(=O)NC2CC3CCC2C3)cc1)S(C)(=O)=O (centres unmarked)
The “% Inhibition @ 10 uM” value of the first is higher: 1.61% for the first, -1.51% for the second.

Compared with COc1ccc(-c2noc(CN(C3CCCCC3)S(=O)(=O)c3ccc(C)cc3)n2)cc1, COc1ccc(-c2cn3c4ccccc4nc3n2CCN2CCCCC2)cc1 is higher in “% Inhibition @ 10 uM” value: -1.22% for the first, 2.94% for the second.

Compared with CCOCCCn1c(=N)c(C(=O)NC2CCCCC2)cc2c(=O)n3cc(C)ccc3nc21, Cn1c(=O)n(C)c2cc(S(=O)(=O)NC3CCCC3)ccc21 is higher in “% Inhibition @ 10 uM” value: 1.97% for the first, 5.03% for the second.

First: CCOC(=O)C1CCN(C2CCC(c3ccccc3)CC2)CC1 (centres unmarked)
Second: O=C(CC(C(=O)O)C1CCCO1)NCc1ccccc1 (centres unmarked)
The “% Inhibition @ 10 uM” value of the first is lower: 5.03% for the first, 25.8% for the second.

Compared with O=C1CC(c2ccc(Cl)c(Cl)c2)CC(=O)C1=CNCCN1CCNCC1 (centres unmarked), COC(=O)c1cc(S(=O)(=O)N2CCN(CCOc3ccc(Cl)cc3)CC2)c[nH]1 is higher in “% Inhibition @ 10 uM” value: 5.3% for the first, 6.61% for the second.

Going from CC1=C(C(=O)Nc2ccccc2C)C(c2ccccc2O)NC(S)=N1 (centres unmarked) to O=C(NCCCO)c1ccccc1C(=O)c1ccccc1, the “% Inhibition @ 10 uM” value rises from 1.13% to 6.08%.

Going from Cc1ccc(NC(=O)C(C)Sc2nc3nc(C)cc(C)n3n2)cc1 (centres unmarked) to Cc1ccc(-c2nc3cc(NC(=O)c4nc[nH]n4)ccc3o2)c(Cl)c1, the “% Inhibition @ 10 uM” value rises from -7.58% to -1.36%.

First: Nc1cc(S(=O)(=O)c2ccc(Cl)cc2)ccc1Cl
Second: COc1cccc(NC(=O)C(C)Oc2ccc(Cl)cc2Cl)c1 (centres unmarked)
The “% Inhibition @ 10 uM” value of the first is lower: -1.69% for the first, -1.44% for the second.

First: O=C(CCn1c(=O)c2cccn2c2cccnc21)NCCCN1CCCC1=O
Second: CC(C)(C)c1ccc(OCC(=O)NCCN2CCCC2)cc1
The “% Inhibition @ 10 uM” value of the first is higher: -1.28% for the first, -3.65% for the second.

Going from COc1cccc(C(C)NC(=O)c2c(F)cccc2Cl)c1 (centres unmarked) to O=C(Nc1ccc(Cl)cc1Cl)c1cc2nc(-c3ccccc3)cc(C(F)(F)F)n2n1, the “% Inhibition @ 10 uM” value falls from 0.843% to -1.5%.

First: O=C(NCc1ccco1)C1CCN(S(=O)(=O)c2ccc3nc(O)oc3c2)CC1
Second: O=C(NCc1ccc2c(c1)OCO2)c1ccc(C(=O)NCc2ccc3c(c2)OCO3)nc1
The “% Inhibition @ 10 uM” value of the first is lower: -4.08% for the first, -3.72% for the second.

Going from CC(N)C1COc2ccccc2O1 (centres unmarked) to C=CCc1ccccc1OCC(O)CN1CCCC(C)C1 (centres unmarked), the “% Inhibition @ 10 uM” value falls from -0.902% to -7.08%.

First: COc1ccc(-c2nnc(SC3CCOC3=O)o2)cc1 (centres unmarked)
Second: COc1ccc(-c2[nH]nc3c2C2(C(=O)Nc4ccc(F)cc42)C(C#N)=C(N)O3)cc1 (centres unmarked)
The “% Inhibition @ 10 uM” value of the first is higher: 6.49% for the first, 0.343% for the second.

First: CC1CC(C)CN(CCCNC(=O)C2CCCN(S(=O)(=O)N3CCOCC3)C2)C1 (centres unmarked)
Second: CN1CCCN(CC2CC3C=CC2C3)CC1 (centres unmarked)
The “% Inhibition @ 10 uM” value of the first is higher: -1.09% for the first, -1.78% for the second.

Going from Cc1ccc(N2C(N)=C(C#N)C(c3ccsc3)C3=C2CCCC3=O)cc1 (centres unmarked) to Cc1ccc(/C=c2\sc3nc(-c4ccc(C(C)(C)C)cc4)nn3c2=O)o1, the “% Inhibition @ 10 uM” value falls from 3.72% to 1.91%.

Going from O=S1(=O)Nc2cc3nc4ccccc4nc3c3cccc1c23 to O=C(c1ccccc1Cl)n1nc(-c2cccnc2)nc1NCc1ccccc1, the “% Inhibition @ 10 uM” value falls from 22.9% to -2.92%.

Compared with CCCSc1nc(C)cc(COC)c1C#N, CCOc1ccc(OCC)c(C=C(C#N)C#N)c1 is higher in “% Inhibition @ 10 uM” value: 1.33% for the first, 4.22% for the second.

Going from O=C1C2CC=CCC2C(=O)N1CNc1ccccc1 (centres unmarked) to Cc1ccc(OCC(=O)N2CCN(C(=O)COc3ccc(Br)cc3)CC2)cc1, the “% Inhibition @ 10 uM” value rises from -7.02% to -1.52%.

N#Cc1c(NC(=O)c2cc3ncc(Br)cn3n2)sc2c1CCCC2 was tested, and the “% Inhibition @ 10 uM” value was -3.49%.

Reference: article PMC6919601, “Identification of Plasmodium dipeptidyl aminopeptidase allosteric inhibitors by high throughput screening” (PLoS ONE, 2019)
